Test results as given in the RNAGym collection of RNA variant scans (doi:10.7554/elife.90254).
Read counts are not given, so values of variants with three or more changes are uncertain.

B1: LINE1-mini (parent)
chain: GGCAGAGCUCAACACAGCGUGGCAAAGUGGCUGUGGCUAGACUGCC

Variants of: B1
Experiment: self-cleavage, relative activity (ratio to wild type); higher = more cleavage; in vitro, sequencing; the parent is a self-cleaving ribozyme

Variant | self-cleavage
GGCAGCACUCAACACAGCGUGGCAAAGUGGCUGUUGCUAGACUGCC [A6C G7A G35U] | 0.29
GGCAGCGCUGAACACAGCGUGGCAAAGUGGUUGUGGCUAGACUGCC [A6C C10G C31U] | 0.01
GGCAGCCCUCAACACAGAGUGGCAAAGUGGCUGUGGCUAGACUGCC [A6C G7C C18A] | 0.01
GGCAGCGCUCAACACAGACUGGCAAAGUGGCUGUAGCUCGACUGCC [A6C C18A G19C G35A A39C] | 0.1
GGCAGCGCUCAAUACAGCGUGGCAAAUUGGCUGUGGCGAGACUGCC [A6C C13U G27U U38G] | 0.02
GGCAGCACUUAACACAGCGUGGCAAAGUGGCUGUGGCUAGACUGCC [A6C G7A C10U] | 0.03
GGCAGCGCUCAACAAAGCGUGGCAAAGUGGCUGUGGCUAGACUUCC [A6C C15A G44U] | 0.05
GGCAGCGCUCAACAUACCGUUGAAAAGUGGCUGUGGCUAGACUGCC [A6C C15U G17C G21U C23A] | 0.1
GGCAGCGCUCAACACAGAGCGGCAAAGUUGCUAUGGCUAGACUGCC [A6C C18A U20C G29U G33A] | 0.01
GGCAGCUCUCCACACAGCGUGGCAACGUGGCUGAGGCUAGACUGCC [A6C G7U A11C A26C U34A] | 0.03
GGCAGCGCUCAAUACGGCGUAGCAAAUUGGCUGUGGCUAGACUGCC [A6C C13U A16G G21A G27U] | 0.13
GGCAGCGCUCAAUACAGUAUGGCAAAGUGGCUGUGGCUAGACUGCC [A6C C13U C18U G19A] | 0.06
GGCAGCUCUAAACACACCGCGGCAAAGUGACUGUGUCUAGACUGCC [A6C G7U C10A G17C U20C G30A G36U] | 0.03
GGCAGCACUCAACACAGCGUGGCAAAGUGGCUGUUGCAAGACUGAC [A6C G7A G35U U38A C45A] | 0.38
GGCAGCGCUGAACACAGCCUAGCAAAGUGGAUGUGGCUAGACUGCC [A6C C10G G19C G21A C31A] | 0.03
GGCAGCGCUCAACAUAGCUUGGCAAAGUGGCUGUGGCGAGACUGCC [A6C C15U G19U U38G] | 0.02
GGCAGCGCUCAACACAGAGUGGCAAAGUGGCUGUGGUUAGACUGCA [A6C C18A C37U C46A] | 0.03
GGCAGCGCUCAACAAAGCGUGGCAAAGUUGCUGUGGCUCGGCUGCC [A6C C15A G29U A39C A41G] | 0.06
GGCAGCACUCAACACAGCGUGGCAAAGUGGCUGUGGCGAGACUGCC [A6C G7A U38G] | 0.01

Variant | self-cleavage
GGCAGCGCUCAAAACAGCGUGGCAAAGUGGUUGUGGCUAGACUGCC [A6C C13A C31U] | 0.01
GGCAGCGCUCAAUACAGCGUGGCAAAGUGGGUGUGGCGAGACUGCC [A6C C13U C31G U38G] | 0.18
GGCAGCGCUCAACAAAGCGUGACAAAGUGGCUGUGGCUAGACUGCC [A6C C15A G22A] | 0.03
GGCAGCGCUCAACAUAGAGUGGCAAAGUUGCUGUGGCUAGACUGCC [A6C C15U C18A G29U] | 0.11
GGCAGCGCUCAACACAGCGUGGUAAAGUGGCUGUGGCUAGUCUGCC [A6C C23U A41U] | 0.11
GGCAGCGCUCAACAAACCGUGGCAAAGUGGCUGUGGCUAGACUGCC [A6C C15A G17C] | 0.06
GGCAGCGCUUAGCAGAGCGUGGCAAAGUGGCUGUGGCUAGACUGCC [A6C C10U A12G C15G] | 0.03
GGCAGCGCUCAACACAGCGUGGGAAAGUGUCUGUGGCUAGACUUCC [A6C C23G G30U G44U] | 0.09
GGCAGCGCUCAACACAGCGUGGCAAAGUGGGUGGGGCUAGACUGCC [A6C C31G U34G] | 0.06
GGCAGCGCUGAACACAGCGUGCCAAAGUGGUUGUGGCUAGACUGCC [A6C C10G G22C C31U] | 0
GGCAGCGCUCAACACAGCGUGGCAAAGUGGCUGUGGGUAGACUGCA [A6C C37G C46A] | 0.01
GGCAGCGCUCAACACAGCGUGGAAAAGGGGCUGUGGCUAUACUGCC [A6C C23A U28G G40U] | 0.38
GGCAGCCCUCAACAGAGCGUGGCAAAGUGGCAAUGGCUAGAAUGCC [A6C G7C C15G U32A G33A C42A] | 0
GGCAGCGCUGAACACAGCGUGGAAAAGUGGCUGUGGCUUGACUGGC [A6C C10G C23A A39U C45G] | 0.01
GGCAGCGCUAAACACAGCGGGGCAAAGUGGCUGUGGCUAGACUGCC [A6C C10A U20G] | 0
GGCAGCGCUCAAUACAGCGUGGCUAAGUGGCUGUGGCUAGACUCCC [A6C C13U A24U G44C] | 0.06
GGCAGCUCUCAACACAGCGUGGCAUAGUGGCUGUGCCUAGACUGCC [A6C G7U A25U G36C] | 0.1
GGCAGCCCUCAACACAGCGUGGCACAGUGUCUGUGGCUAGACUGCC [A6C G7C A25C G30U] | 0.07
GGCAGCCCUCAAUACAGCGUGGCAAAGUUGCUGUGGCUAGACUGCC [A6C G7C C13U G29U] | 0.74

Variant | self-cleavage
GGCAGCGCUCAACACAGGGUGGCGAAGGGACUCUGGCUAGACUUCC [A6C C18G A24G U28G G30A G33C G44U] | 0.02
GGCAGCUCUCAAAACAGCGUGGCAAAGUGUCUGUGGCUAGACUGCC [A6C G7U C13A G30U] | 0.07
GGCAGCGCUCAACAAAGCUUGGCAAAGUGGCAGUGGCUAGAUUGCC [A6C C15A G19U U32A C42U] | 0.06
GGCAGCGCUCAAGACAGCGUGGCAAAGUGCCUGUGGCUAUGCUGCC [A6C C13G G30C G40U A41G] | 0.02
GGCAGCGCUCAACACAGCGUGGGAAAGUGGCUGUCGCUAGACUGCC [A6C C23G G35C] | 0.01
GGCAGCGCUCAACACAGUGUGGCAAAGUGGCUGUGGCUAGGCUGCC [A6C C18U A41G] | 1.08
GGCAGCGCUCAACACAGCGUGGUAAAGUGGCUGUGGCUAUACUGCC [A6C C23U G40U] | 0.27
GGCAGCGCUCAACACAGCGUGGAAAAGUGGCUGUGGAUGGACUGGC [A6C C23A C37A A39G C45G] | 0.13
GGCAGCUCUUAACACAGCGUGGCAAAGUGGCUGUGGCUAGACUGCC [A6C G7U C10U] | 0.05
GGCAGCGCUCAACACAGGGUGGCAAACUGGCUGGGGCUAGACUGCC [A6C C18G G27C U34G] | 0.03
GGCAGCCCUCUACACAGCGUGGCAAAGUGGCUGUGGCUAGACUGCC [A6C G7C A11U] | 0.11
GGCAGCGCUCAACAUGGCGUGGCAAGGUGGCUAUGGCUAGAGUGCC [A6C C15U A16G A26G G33A C42G] | 0.06
GGCAGCGCUCAAAACAGCGUGGCAAAGUGGCUGUGGCUAGACUACC [A6C C13A G44A] | 0.04
GGCAGCGCUUAACACAGCGUGGCAAAGUGGCUGAGGCUAGACUGCC [A6C C10U U34A] | 0.05
GGCAGCGCUUAACACAGCAUGGCAAUGUGGCUGUGGCUAGUCUGCC [A6C C10U G19A A26U A41U] | 0.03
GGCAGCGCUUAUCACAGCGUUGCAAGGUGGCUGUAGCUAGACUGCC [A6C C10U A12U G21U A26G G35A] | 0.02
GGCAGCGCUCAACACAGAGCGGCAAAGUGGCUGUGGAUAGACUGCG [A6C C18A U20C C37A C46G] | 0.01
GGCAGCGCUUAACACAGAGUGGCAAAGUGGCUGUGGCUAUACUGCC [A6C C10U C18A G40U] | 0.01
